Results as given in PubChem BioAssay AID1346428 (National Center for Advancing Translational Sciences (NCATS), 2018).
The campaign covered roughly 48,000 compounds. About 1,200 (2.5%) were called active. Not shown: some 2% with an inconclusive outcome.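 How the source made its calls: active means activation of at least 60% and not above a set upper limit (about 1 call in 100 departs from these limits); inconclusive means activation of 40% to 60%, or above that upper limit; inactive means activation under 40%.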 The list shows a part of the results.

Target: Probable G-protein coupled receptor 32 (Homo sapiens) (UniProt O75388)
Assay: qHTS for Agonists of Human Resolvin D1 Receptor DRV1; further: 0% is about no effect
Settings: CHO-K1 GPR32 beta-arrestin PathHunter luminescence, 90 min; at 76.9 µM; stronger effect = higher value; zero percent set by DMSO-only wells
In short: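 CHO-K1 cells stably expressing ProLink-tagged GPR32 and Enzyme Activator-tagged beta-arrestin were seeded at 2,500 cells/well overnight, exposed to compounds for 90 min at 37 °C, then read by beta-Gal complementation chemiluminescence after 1 h detection reagent.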

Chain of UniProt O75388 (O75388 whole entry, looked up): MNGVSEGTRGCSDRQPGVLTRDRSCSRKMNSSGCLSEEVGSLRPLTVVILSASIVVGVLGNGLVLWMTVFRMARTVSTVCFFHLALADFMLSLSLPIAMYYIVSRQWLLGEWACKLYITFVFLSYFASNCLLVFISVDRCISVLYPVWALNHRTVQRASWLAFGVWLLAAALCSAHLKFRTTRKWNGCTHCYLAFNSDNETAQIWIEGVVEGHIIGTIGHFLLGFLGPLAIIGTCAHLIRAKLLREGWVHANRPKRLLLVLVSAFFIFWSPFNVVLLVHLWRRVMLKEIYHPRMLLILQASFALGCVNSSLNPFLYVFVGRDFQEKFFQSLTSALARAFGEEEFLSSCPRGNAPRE

activation, inactive:
CCC(C(=O)Nc1cc(OC)ccc1OC)n1c(C)c2cnn(-c3ccccc3)c(=O)c2c1C (stereo not given) 21.7%
Cc1c(C(=O)N2CCCC2)oc2c1-c1nn(CC(=O)NC(C)c3ccccc3)cc1CC2 (stereo not given) -11.5%
COc1ccccc1Cn1cc(C(=O)c2ccc(F)cc2)c(=O)c2cc3c(cc21)OCO3 2.87%
Cc1ccc(Nc2ncc(C(=O)N3CCN(c4cccc(Cl)c4)CC3)c3ccccc23)cc1Cl -7.69%
Cc1ccc2oc(C(=O)Nc3cccc(-c4nc5ccccc5s4)c3)c(C)c2c1 7.99%
Cc1ccc(C)c(N2CCN(C(=O)c3cc(S(=O)(=O)N4CCC(C)CC4)cn3C)CC2)c1 -22.2%
COc1ccccc1C(=O)c1cn(CC(=O)Nc2ccccc2F)c2nc(C)ccc2c1=O -10.2%
O=C(OC1C[C@H]2CC[C@@H](C1)[N+]21CCCC1)C(O)(c1ccccc1)c1ccccc1 (stereo not given in full) -0.294%
CC(C)c1ccc(NC(=O)CC2Oc3ccccc3NC2=O)cc1 (stereo not given) 45.8%
Cc1cc(OCC(=O)N(Cc2ccc(N(C)C)cc2)C2CCS(=O)(=O)C2)cc(C)c1Cl (stereo not given) -31.3%
COc1cc(C(=O)NCCc2csc3nc(-c4ccccc4C)nn23)cc(OC)c1OC 10.2%
COc1ccc(NC(=O)Cn2c(=O)n(-c3ccc(OC)cc3)c(=O)c3ccc(C(=O)NCc4ccc(C)cc4)cc32)cc1 28.3%
Cc1ccc(Cl)cc1NC(=O)CN1C(=O)COc2ccc(S(=O)(=O)N3CCCCCC3)cc21 -19%
COc1ccccc1CCNC(=O)CCc1c(C)c2cc3c(C)c(C)oc3cc2oc1=O -18.3%
Cc1ccc(NC(=O)C(=O)NCC(c2ccc3c(c2)OCO3)N2CCN(c3ccccc3)CC2)cc1 (stereo not given) 6.41%
CCN(C(=O)C(Cc1ccccc1)NS(=O)(=O)c1cccc2nsnc12)c1ccccc1 (stereo not given) -18.3%
O=C(c1cccs1)c1cn(CCOc2ccccc2Cl)c2ccccc12 -13.6%
CCOc1ccc(CCNC(=O)c2ccc(-c3nc(COc4ccc(C)cc4)c(C)o3)cc2)cc1 -3.13%
CC1(C)C(=O)N(CCN2CCC(C(=O)c3ccc(F)cc3)CC2)c2ccccc21 2.35%
COc1ccc(NC(=O)CSc2nc(-c3ccc(F)cc3)c3cccc(C)c3n2)cc1 -3.08%
Cc1ccc(C)c(NC(=O)CCc2c(C)nn(-c3ccc(N4CCCC4)nn3)c2C)c1 1.81%
COCCCn1c(SCC(=O)Nc2ccccc2OC)nc2c(sc3ccccc32)c1=O -28.5%
COc1ccc(CCNC(=O)c2ccc(Cn3c(=O)c4ccccc4n(Cc4ccc(C)cc4)c3=O)cc2)cc1OC -1.19%
COc1ccc(C2C(=O)N(C3CCCCCC3)CC(=O)N2CCc2ccc(OC)c(OC)c2)cc1 (stereo not given) -16.8%
Cc1ccc2nc(CN3CCN(C(=O)Nc4ccc(C)c(F)c4)CC3)oc2c1 -17.4%
CCOC(=O)C1CCCN(C(=O)Cn2ncn3c(cc4sc(CC)cc43)c2=O)C1 (stereo not given) -11%
COC(=O)c1ccc(OC)c(Cn2c(=O)n(-c3cccc(Cl)c3)c(=O)c3c4c(sc32)CN(C(C)=O)CC4)c1 27.8%
COc1ccc(-c2oc3ncn4nc(COc5ccccc5C)nc4c3c2-c2ccc(OC)cc2)cc1 24.4%
CCCCN(C)CCCNC(=O)c1cc(-c2cccnc2)nc2ccccc12 3.46%
CCC1=Nc2cc(C(=O)NCc3ccc(C)cc3)ccc2Sc2ccc(C)cc21 -25.1%
COc1cc(OC)c(NC(=O)Cc2ccc(-n3c(C)nc4cccnc43)cc2)cc1Cl 24.6%
O=C(Nc1ccc(F)cc1)[C@@H](c1ccccc1)N1Cc2ccccc2C1=O -15%
COc1ccc(/C=C/c2nc(C#N)c(NCCc3ccccc3)o2)cc1OC -16.1%
COc1ccc(NC(=O)c2c(C)oc3ccc(O)c(CN4CCCCCC4)c23)cc1Cl -13%
CC(=O)Nc1ccc(S(=O)(=O)Nc2cc(-c3cn4ccccc4n3)ccc2C)cc1 23.6%
COc1ccc(CCNC(=O)c2cn(C)c3ccc(S(=O)(=O)N(C)C4CCCCC4)cc3c2=O)cc1OC -3.54%
COc1ccc(OC)c(CCNC(=O)c2cnn(-c3ccccc3Cl)c2C2CCN(C(=O)OC(C)(C)C)CC2)c1 -13.6%
Cc1cccc(C(=O)Nc2c(C(=O)NCc3ccc(Cl)cc3)sc3nc(C)cc(C)c23)c1 -21.2%
COc1ccc(Nc2nc3c(S(=O)(=O)c4ccccc4)nnn3c3ccsc23)cc1OC -9.12%
COc1ccccc1NC(=O)C1=C(C)Nc2nnnn2C1c1cc(Br)c(O)c(OC)c1 (stereo not given) -37%
COc1ccc(-c2nsc(NC(=O)C(C)Oc3ccc(Cl)c(C)c3)n2)cc1 (stereo not given) -2.93%
COc1cccc(-n2c(=O)c3c(C)c(C)sc3n(CC(=O)NCc3ccccc3)c2=O)c1 -6%
COc1ccc(NC(=O)c2cnc(Nc3ccc(C)c(Cl)c3)c3ccccc23)cc1OC -0.333%
Cc1ccc(C)c(Cn2c(=O)cc(C)c3c(C)nn(-c4cccc(F)c4)c32)c1 -3.62%
Cc1sc2ncn(CC(=O)N3CCN(c4cccc(Cl)c4)CC3)c(=O)c2c1S(=O)(=O)N1CCN(c2ncccn2)CC1 -6.13%
COc1ccccc1N1CCN(S(=O)(=O)CCNC(=O)COc2ccc(C(C)C)cc2)CC1 -2.62%
CCCN(CCC)CCNC(=O)c1ccc2c(c1)NC(=O)C(CS(=O)(=O)Cc1cccc(Br)c1)N2 (stereo not given) -20.9%
COc1ccc(-c2nc(C)c(CCNC(=O)C(=O)Nc3cc(C)cc(C)c3)s2)cc1OC 17.2%
COc1ccc(-c2nc(SCc3cc(=O)c4cc(C)ccc4[nH]3)n[nH]2)cc1 -18.2%
CCOc1ccccc1N1CC(c2nc3ccccc3n2Cc2c(C)cc(C)cc2C)CC1=O (stereo not given) -1.98%
COc1ccc(NC(=O)c2ccc3c(SCC(=O)O)c4c(nc3c2)CCC4)c(OC)c1 -11.9%
Cc1ccc(NC(=O)Cn2nc(C)n3cccc3c2=O)c(C)c1 0.347%
CC(=O)N1c2ccc(S(=O)(=O)NCC3CCC(C(=O)Nc4cccc(C)c4C)CC3)cc2CC1C (stereo not given) -4.94%
CCOCCCNC(=O)C(c1ccc(OC)cc1)N(Cc1ccc2c(c1)OCO2)C(=O)c1ccccc1O (stereo not given) -12.7%
Cc1ccccc1C(=O)Nc1c(C)nc(Nc2ccccc2)nc1Nc1ccccc1 5.32%
Cc1cccc(N2CCN(C(=O)c3cc4c(=O)n(C)c5ccccc5c4s3)CC2C)c1 (stereo not given) -2.7%
O=C(NCc1ccccc1)c1nc(S(=O)(=O)Cc2ccccc2)ncc1Cl -21.1%
CN1CCc2nc3sc(C(=O)Nc4ccccc4OC(F)(F)F)c(N)c3cc2C1 -17%
COC(=O)c1c(C)oc2ccc(N(C(=O)c3ccncc3)S(=O)(=O)c3c(C)cc(C)cc3C)cc12 12.9%
Cc1cccn2c(=O)c3cc(C(=O)NCc4cccnc4)c(=N)n(CCCO)c3nc12 2.35%
CC(C)(C)c1ccc(C(=O)NC2(C(F)(F)F)C(=O)Nc3c2c(=O)[nH]c(=O)n3-c2ccccc2)cc1 (stereo not given) 4.35%
Cc1sc2ncn(CC(=O)N3CCN(c4ccc(Cl)cc4)CC3)c(=O)c2c1S(=O)(=O)N1CCN(c2ncccn2)CC1 8.49%
Cc1ccc(Cn2c(SCC(=O)C(C)(C)C)nc3ccsc3c2=O)cc1 -21.3%
CC1=Nc2cc(C(=O)NCCc3ccccc3)ccc2Sc2c(C)ccc(C)c21 -28.6%
CCN1CCCC1=O 9.2%
COc1ccc(NC(=O)Cn2c(=O)n(-c3ccc(C)cc3)c(=O)c3c2cnn3C)cc1 -3.2%
O=C(Nc1ccc2nc(SCC(=O)N3CCCC3)sc2c1)c1cccc(Cl)c1 -18%
CCOC(=O)c1c(C)[nH]c(C)c1S(=O)(=O)N(C)CC(=O)Nc1ccc(C)c(N(C)C)c1 5.24%
CCOC(=O)c1cc2c(=O)n3ccccc3nc2n(Cc2ccco2)c1=NC(=O)c1c(F)cccc1Cl 0.68%
CC(C)CCNC(=O)C1CCN(c2nc3ccc(Cl)cc3[nH]2)CC1 -8.6%
COc1ccc(C)cc1NC(=O)c1ccc(=O)n(Cc2ccccc2)c1 -26.2%
COC(=O)c1cc2occc2n1Cc1nc(-c2cccc(Cl)c2)oc1C -6.49%
Cc1ccc(/C=C/c2onc(C)c2S(=O)(=O)N2CCC(C(=O)N3CCN(c4ccccc4F)CC3)CC2)cc1 -6.1%
O=C(NCc1nc2ccccc2[nH]1)c1c(F)cccc1F -6.78%
Cc1cccc(-n2c(C)nc3cc(C(=O)NCCC4=CCCCC4)ccc32)c1 -22.6%
COc1ccc(NC(=O)CCNS(=O)(=O)c2cccc3nsnc23)cc1Cl -15.1%
CCOc1ccccc1CN1CCc2nc(Nc3ccc4c(c3)OCCO4)ncc2C1 -13.3%
COc1ccc(CCNC(=O)c2cc3sccc3n2Cc2ccc(Cl)cc2)cc1OC -20.5%
CCCS(=O)(=O)N1CC(=O)N(c2ccc(C)cc2)C(C)(C(=O)NC2CCCCCC2)C1 (stereo not given) 4.84%
O=C(NCCc1ccccc1Cl)c1ccc2c(=O)n(-c3ccccc3)c(=O)[nH]c2c1 40.4%
